2 molecules from US20130197191A1 (Amgen, published 2013) can be followed below.

The target of experiment [1] is T1, recombinant human β-Klotho (human, UniProt Q86Z14 53-996, limits assumed, biotinylated in the AlphaScreen assays (site not stated)).
T1 construct: also called rhβ-klotho; huβKlotho-His
T1 sequence: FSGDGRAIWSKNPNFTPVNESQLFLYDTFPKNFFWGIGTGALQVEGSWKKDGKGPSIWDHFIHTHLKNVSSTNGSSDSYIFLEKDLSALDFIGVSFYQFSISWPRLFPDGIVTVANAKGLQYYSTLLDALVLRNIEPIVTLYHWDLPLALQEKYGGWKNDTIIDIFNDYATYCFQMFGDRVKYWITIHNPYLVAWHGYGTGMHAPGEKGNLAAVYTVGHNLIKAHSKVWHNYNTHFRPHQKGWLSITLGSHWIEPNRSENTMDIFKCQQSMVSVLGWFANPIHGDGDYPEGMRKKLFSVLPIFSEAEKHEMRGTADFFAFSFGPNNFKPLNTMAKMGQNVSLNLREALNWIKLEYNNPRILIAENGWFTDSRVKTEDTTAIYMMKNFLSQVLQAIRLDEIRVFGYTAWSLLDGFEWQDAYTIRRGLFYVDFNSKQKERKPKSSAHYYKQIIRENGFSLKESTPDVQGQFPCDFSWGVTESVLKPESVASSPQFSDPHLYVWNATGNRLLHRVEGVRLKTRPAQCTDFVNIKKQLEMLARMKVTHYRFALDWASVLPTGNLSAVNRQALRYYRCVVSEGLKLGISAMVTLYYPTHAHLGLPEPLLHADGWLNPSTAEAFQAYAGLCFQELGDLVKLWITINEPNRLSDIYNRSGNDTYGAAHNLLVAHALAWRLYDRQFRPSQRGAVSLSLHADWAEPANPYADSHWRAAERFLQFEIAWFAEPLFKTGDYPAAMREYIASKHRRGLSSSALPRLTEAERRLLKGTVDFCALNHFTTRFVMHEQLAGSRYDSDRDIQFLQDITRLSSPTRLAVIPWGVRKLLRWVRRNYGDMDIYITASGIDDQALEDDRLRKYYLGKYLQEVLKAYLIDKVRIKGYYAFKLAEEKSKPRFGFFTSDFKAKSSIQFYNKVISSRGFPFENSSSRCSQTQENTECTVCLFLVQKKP
In words: phage panning.

Experiment [2] deals with T1, recombinant human β-Klotho. The experiment can be described thus: phage panning. This is another data set of the same source.

Read-outs that look alike come from different tables or passages of the source.

B1: β-Klotho walked dimer bKWD28 (designed binder)
chain: CGANEFQCRSTGICVPVEWVCDGDNDCGDGSDEPPVCGDSHILPFSTPGPSTCQPDEFTCSSGRCIPQPWLCDGLNDCGDGSDEPPAHCSAPASEPPGSL
B1: the binding result in experiment [1] is recorded as “binds”.

B2: β-Klotho walked dimer bKWD38 (designed binder)
chain: CAAGEFQCSSGRCLPRPWVCDGDNDCGDDSDETNCRASAHTCHSFNQFECRNGQCIPLHLVCDGVPDCGDNSDETDCGDSHILPFSTPGPST
With B2, the binding result in experiment [2] is given as “binds”.
